The other results are listed elsewhere or left out. Sequences were assembled here from the parent chain. Inactive controls read about 0.05.
B1: TEV protease; numbered along this chain (parent)
chain: MGESLFKGPRDYNPISSSICHLTNESDGHTTSLYGIGFGPFIITNKHLFRRNNGTLVVQSLHGVFKVKDTTTLQQHLVDGRDMIIIRMPKDFPPFPQKLKFREPQREERICLVTTNFQTKSMSSMVSDTSCTFPSGDGIFWKHWIQTKDGQCGSPLVSTRDGFIVGIHSASNFTNTNNYFTSVPKNFMELLTNQEAQQWVSGWRLNADSVLWGGHKVFMVKPEEPFQPVKEATQL

Variants of: B1
Assay: raw area under fraction-flipped curve 0-4 h after induction (AUC4h, not background-subtracted), DNA-recorder readout of cleavage of the substrate (dimensionless); higher = more cleavage of the substrate by the protease variant
Conditions: temperature: 34 °C; time window: 0-4 h after rhamnose induction
Method: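 In vivo DNA recorder in E. coli TOP10(DE3) ΔrhaA at 34 °C. Each TEVp single-site mutant (parent TEVp 0) is paired with a single-site variant of the 7-mer TEVs (canonical ENLYFQ|S). The substrate sits between flexible linkers in a Bxb1-sfGFP-TEVs-SsrA fusion, so cleavage stabilises Bxb1 and speeds flipping of a recombination array, read by NGS. The value is the raw area under the fraction-flipped curve over 0-4 h after rhamnose induction (AUC4h), with ≥20 reads per time point. It is not background-subtracted; inactive controls average about 0.047.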
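Note: Bxb1 expression induced with 0.2% (w/v) L-rhamnose at OD600 near 0.5, cultures sampled hourly, flipped fraction per protease–substrate barcode pair counted by paired-end Illumina sequencing.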

| Variant | area with substrate ENLYFQA | area with substrate ENLYFQC | area with substrate ENLYFQD | area with substrate ENLYFQF | area with substrate ENLYFQG | area with substrate ENLYFQI | area with substrate ENLYFQK | area with substrate ENLYFQL | area with substrate ENLYFQM | area with substrate ENLYFQN | area with substrate ENLYFQP | area with substrate ENLYFQR | area with substrate ENLYFQS | area with substrate ENLYFQT | area with substrate ENLYFQW | area with substrate ENLYFQY | area with substrate ENLYFQH | area with substrate ENLYFQE | area with substrate ENLYFQQ | area with substrate ENLYFQV |
| --- | --- | --- | --- | --- | --- | --- | --- | --- | --- | --- | --- | --- | --- | --- | --- | --- | --- | --- | --- | --- |
| Q194D | 0.101 | 0.124 | 0.078 | 0.0973 | 0.111 | 0.0633 | 0.0604 | 0.0623 | 0.093 | 0.0747 | 0.0515 | 0.0691 | 0.113 | 0.0705 | 0.0544 | 0.0571 | – | – | – | – |
| Y34P | – | 0.0748 | – | – | 0.0601 | 0.0418 | 0.0439 | – | 0.0481 | – | 0.0522 | 0.0515 | 0.0502 | 0.0256 | – | – | 0.0677 | – | – | – |
| Y34M | – | 0.112 | 0.0394 | – | 0.0911 | 0.0588 | 0.0764 | 0.0684 | 0.0874 | 0.0711 | 0.0656 | – | 0.103 | – | 0.057 | – | – | – | – | – |
| R51D | – | 0.135 | – | 0.0377 | – | – | 0.0681 | – | – | 0.0947 | – | 0.0662 | 0.11 | – | – | – | – | – | – | – |
| R51E | – | 0.116 | – | – | 0.0881 | 0.0707 | 0.0653 | 0.0641 | – | 0.0784 | 0.051 | 0.0523 | 0.107 | – | – | 0.0804 | 0.0835 | 0.0579 | – | – |
| T233A | 0.0929 | – | 0.0647 | – | – | 0.0683 | – | 0.0442 | 0.0831 | – | – | – | 0.101 | – | – | – | 0.0872 | – | 0.0833 | – |
| W203T | 0.0568 | 0.0595 | – | – | 0.0598 | 0.0556 | – | 0.0688 | 0.0592 | – | – | 0.0606 | 0.0671 | 0.0627 | – | 0.0735 | 0.0238 | – | – | 0.0554 |
| W203Q | 0.0704 | – | 0.0627 | – | – | – | – | – | 0.0588 | 0.0531 | 0.0566 | – | 0.068 | – | – | 0.0593 | – | – | – | – |
| W203H | 0.069 | – | 0.057 | 0.0576 | 0.159 | 0.0527 | 0.0668 | – | 0.0814 | 0.0569 | – | 0.0591 | 0.0712 | 0.0563 | – | 0.0774 | – | – | 0.0773 | 0.0578 |
| N193F | 0.0622 | – | – | 0.0724 | – | – | 0.0373 | 0.0596 | 0.0813 | – | – | – | 0.086 | 0.0322 | – | – | 0.0419 | – | – | – |
| N193H | 0.0762 | 0.0902 | – | 0.0729 | 0.081 | – | 0.0715 | 0.071 | – | 0.0602 | – | – | 0.0971 | – | – | – | 0.058 | – | 0.067 | 0.051 |
| G35H | – | 0.043 | 0.0529 | – | – | 0.0159 | 0.0397 | – | – | – | 0.0485 | – | 0.0444 | – | 0.04 | – | 0.0416 | – | – | – |
| I15R | – | 0.0609 | – | – | 0.0474 | – | – | 0.0442 | – | 0.052 | – | 0.0425 | 0.0638 | 0.0426 | – | 0.0337 | 0.0507 | 0.0848 | – | – |
| G213E | 0.075 | – | – | – | – | – | – | – | 0.0593 | – | – | 0.0588 | 0.0599 | 0.0449 | – | – | 0.0604 | – | – | 0.0537 |
| G213I | 0.0455 | 0.0578 | 0.0611 | – | 0.087 | 0.0543 | 0.0563 | – | – | 0.0737 | – | 0.0583 | 0.061 | 0.0627 | 0.0603 | 0.0644 | 0.049 | – | – | 0.0648 |
| E231Y | 0.0794 | 0.0862 | – | – | – | 0.0533 | – | – | – | 0.0777 | 0.0681 | 0.0552 | 0.0814 | 0.0814 | – | – | 0.0634 | – | – | 0.0603 |
| E231D | 0.114 | 0.115 | – | – | – | 0.0947 | 0.0603 | – | 0.0967 | 0.0493 | 0.0518 | 0.0495 | 0.108 | 0.0704 | 0.0624 | – | 0.101 | – | – | 0.0573 |
| E231S | 0.127 | 0.087 | – | – | 0.104 | – | – | – | 0.0961 | 0.0873 | 0.0651 | – | 0.102 | – | – | – | – | 0.0556 | 0.0854 | – |
| R204Y | 0.106 | 0.123 | 0.0648 | 0.0921 | 0.108 | 0.0599 | 0.0668 | 0.0662 | 0.0964 | 0.0927 | – | 0.0585 | 0.115 | 0.084 | 0.106 | 0.0851 | 0.0932 | – | 0.0698 | 0.0703 |
| K221P | 0.0783 | 0.099 | 0.061 | – | 0.075 | – | 0.0626 | 0.0594 | 0.0887 | 0.085 | 0.0718 | 0.049 | 0.106 | 0.0517 | 0.0723 | – | – | – | – | – |
| C20I | – | 0.147 | – | – | – | 0.0535 | 0.0503 | 0.0591 | 0.0844 | – | – | 0.0512 | 0.0959 | 0.061 | 0.0825 | 0.067 | 0.0701 | 0.0515 | 0.0806 | 0.0421 |
| F49N | – | 0.073 | – | 0.0364 | 0.0742 | 0.0457 | 0.048 | 0.0509 | 0.0411 | 0.0509 | 0.0825 | 0.0534 | 0.0633 | 0.0634 | 0.0509 | 0.0508 | – | – | – | 0.0537 |
| G2V | – | 0.171 | – | 0.115 | 0.14 | 0.0673 | 0.06 | 0.0786 | 0.118 | 0.0928 | – | 0.0559 | 0.141 | – | 0.0587 | – | – | – | 0.0857 | 0.0481 |
| L235W | 0.121 | 0.142 | – | – | 0.111 | – | – | – | – | – | – | 0.0622 | 0.0963 | 0.0579 | – | – | – | – | 0.0544 | – |
| D27H | – | 0.0694 | – | – | 0.0639 | 0.0667 | – | 0.073 | 0.0668 | 0.0775 | 0.0585 | – | 0.092 | – | 0.062 | 0.0811 | – | – | – | – |
| Q234P | 0.0863 | 0.0928 | 0.0731 | 0.0662 | 0.0969 | 0.0444 | – | 0.0163 | 0.0816 | 0.0948 | – | 0.0568 | 0.0964 | 0.0759 | 0.0604 | 0.0733 | – | – | – | 0.0715 |
| Q234E | 0.0935 | 0.135 | 0.072 | – | – | – | 0.0696 | 0.0548 | – | – | – | 0.0544 | 0.105 | – | 0.0547 | 0.0869 | – | – | – | – |
| N206W | 0.0806 | 0.071 | 0.0605 | – | 0.0873 | 0.0583 | 0.068 | 0.0586 | 0.0699 | 0.0752 | – | 0.0614 | 0.0788 | – | 0.0583 | – | 0.0436 | – | – | – |
| V210W | 0.0883 | 0.0863 | – | – | 0.0918 | 0.0842 | 0.0524 | 0.0587 | – | 0.0738 | 0.0657 | 0.0661 | 0.089 | 0.0477 | – | 0.0426 | – | – | – | – |
| R50A | – | 0.102 | – | – | 0.0812 | 0.0724 | 0.0667 | 0.0937 | 0.092 | 0.0866 | – | 0.0681 | 0.116 | 0.0698 | 0.0708 | – | – | – | – | 0.058 |
